Data reported in the supplement of paper PMC3334620.
In all, about 33,000 sequences were measured (“E-score (-0.5 to 0.5)”: median about -0.035, highest 2% from about 0.35 on). This is one part of the list.

What follows are sequences tested against T1, Pdr3 (UniProt P33200) (assay: PBM E-score (8-mer binding enrichment) (E-score (-0.5 to 0.5)); higher = stronger / more preferred TF binding; most listed sequences are background and not binding sites). Settings: protein concentration: 200 nM; construct: GST-full length.
T1 sequence: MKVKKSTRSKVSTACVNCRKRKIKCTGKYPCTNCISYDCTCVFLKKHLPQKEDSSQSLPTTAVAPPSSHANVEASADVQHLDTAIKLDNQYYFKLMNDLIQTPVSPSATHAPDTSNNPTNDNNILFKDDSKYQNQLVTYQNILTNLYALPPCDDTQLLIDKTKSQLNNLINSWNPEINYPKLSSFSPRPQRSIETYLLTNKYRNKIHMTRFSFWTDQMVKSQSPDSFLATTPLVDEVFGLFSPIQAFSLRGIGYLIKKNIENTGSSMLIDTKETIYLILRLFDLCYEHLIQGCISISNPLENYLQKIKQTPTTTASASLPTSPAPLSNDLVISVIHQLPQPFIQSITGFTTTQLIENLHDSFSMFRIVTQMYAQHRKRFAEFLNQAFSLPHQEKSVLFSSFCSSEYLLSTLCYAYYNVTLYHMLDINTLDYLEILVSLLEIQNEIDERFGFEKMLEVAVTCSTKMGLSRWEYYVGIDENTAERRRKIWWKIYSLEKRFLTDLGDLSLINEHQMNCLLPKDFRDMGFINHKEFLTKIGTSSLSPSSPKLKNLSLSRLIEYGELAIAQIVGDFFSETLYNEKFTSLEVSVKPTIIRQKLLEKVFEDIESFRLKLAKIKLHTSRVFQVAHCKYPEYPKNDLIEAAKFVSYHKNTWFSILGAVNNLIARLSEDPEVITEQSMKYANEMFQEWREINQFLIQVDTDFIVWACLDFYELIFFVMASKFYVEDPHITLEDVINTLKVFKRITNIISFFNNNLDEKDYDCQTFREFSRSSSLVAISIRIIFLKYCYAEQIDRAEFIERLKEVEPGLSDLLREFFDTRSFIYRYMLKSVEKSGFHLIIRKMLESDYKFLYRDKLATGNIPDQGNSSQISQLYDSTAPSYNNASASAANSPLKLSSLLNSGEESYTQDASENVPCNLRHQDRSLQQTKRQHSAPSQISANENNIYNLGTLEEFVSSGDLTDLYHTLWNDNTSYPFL
Procedure, shortened: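 For each ungapped eight-base word taken together with its reverse complement, the Universal PBM Analysis Suite assigned an E-score. Binding data came from GST-tagged yeast transcription factors, applied at about 100-200 nM, on universal all-10-mer Agilent arrays made double-stranded by primer extension. Fluorescent anti-GST marked bound protein, and scans were normalised with masliner.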

| Sequence | PBM E-score |
| --- | --- |
| CAACGCCC | -0.0137 |
| AGCCCTAC | -0.089 |
| GTGTTGCA | -1e-05 |
| CAATAGCG | -0.0265 |
| CTATTAAC | -0.0056 |
| GGGATTAA | 0.194 |
| ATAAGGAA | -0.168 |
| GTCATCTA | 0.0242 |
| GACATGCC | 0.0765 |
| AGAAATCT | -0.0933 |
| CATCCGAC | 0.276 |
| ACAGGATG | 0.012 |
| ACAGGAGA | 0.0653 |
| ACTCCCAG | 0.0209 |
| TGGGAGAA | -0.284 |
| ATCAGCCG | 0.246 |
| ACATCCGC | 0.343 |
| CTTCTGGA | -0.0291 |
| AGAATTCA | -0.189 |
| TGCTTCCA | -0.309 |
| AGGGCCAG | -0.166 |
| ACTGCAGT | -0.218 |
| GGCCTCCC | 0.0149 |
| ACTCCCAT | -0.168 |
| ATTGACTG | -0.0917 |

| Sequence | PBM E-score |
| --- | --- |
| TTATACAA | -0.0528 |
| ATTTTCGG | 0.222 |
| CCGGGACG | 0.365 |
| CATCTCCA | -0.0531 |
| ACGAACAT | 0.0776 |
| CGCTGTAA | 0.104 |
| ACACATTG | 0.218 |
| ACAAATCG | -0.0329 |
| AAGATAGG | -0.249 |
| AGCATATG | -0.291 |
| ATTGGGGC | -0.0658 |
| AAGGCCCG | 0.121 |
| GCTTCTGA | 0.06 |
| AGACATGA | -0.245 |
| GGAACTTA | 0.234 |
| AAGAGCGT | -0.0582 |
| ATTCACAC | 0.0802 |
| GCTACGCA | -0.0228 |
| GCGATGCC | -0.106 |
| GTGAGCAA | -0.185 |
| CCTAGGAC | -0.159 |
| GAGTCAGC | -0.209 |
| CCCCTCAC | 0.0434 |
| ACAGGGAC | 0.0175 |
| CTCCGTGC | 0.263 |

| Sequence | PBM E-score |
| --- | --- |
| TAAACCCA | -0.103 |
| CTTATCGA | 0.0214 |
| AGCTCCAT | -0.0395 |
| GGTATATA | 0.0219 |
| ACACTATA | -0.0905 |
| CATGAGGC | -0.0833 |
| GTCTATAA | -0.0998 |
| ATCAACAG | 0.125 |
| AGATAGAA | -0.0842 |
| ACTCGACC | -0.0578 |
| ATAGATAA | -0.0586 |
| CACTGTAG | 0.00579 |
| CAGCACTG | -0.0433 |
| GGCAAGGA | 0.0896 |
| CCGGTAAA | 0.238 |
| AAGAGAGC | -0.0321 |
| GATTGACA | -0.0696 |
| AGGGTCTG | -0.28 |
| AGTCTAAT | -0.331 |
| CAGACCAG | -0.0503 |
| CCTGTGCA | -0.136 |
| AGACATTC | -0.0597 |
| CCAAAGAA | -0.041 |
| AGAGCGCC | 0.0515 |
| AGTACCGA | 0.0497 |

| Sequence | PBM E-score |
| --- | --- |
| GCCACAAC | 0.0112 |
| CCACAGGC | -0.294 |
| AGCCATCG | -0.134 |
| GACTGATC | -0.214 |
| AAGCCCGC | 0.213 |
| ACGAGCCA | -0.197 |
| GATTGACC | -0.0167 |
| ATACCTCG | 0.00876 |
| CCTATCGC | -0.199 |
| AAGCGGGC | -0.0526 |
| AAGTCGCA | 0.069 |
| CCATAAGC | -0.156 |
| AGACGGCA | 0.202 |
| ATGGCGCC | 0.129 |
| AATCGCGA | 0.158 |
| CCGATCCG | 0.371 |
| TATGTCAA | 0.0343 |
| CTGACCTA | -0.226 |
| GGAGGGCC | -0.0809 |
| ACCACACA | -0.00201 |
| ACAGCTGC | -0.168 |
| ATAACCTG | -0.239 |
| ATGATTGA | -0.104 |
| AAATTGTT | -0.0305 |
| CCACGCAC | 0.0352 |

| Sequence | PBM E-score |
| --- | --- |
| ATATGGTC | 0.00074 |
| ATCTGCCA | -0.133 |
| CTCGCTTA | 0.00027 |
| CCCCGCCG | 0.226 |
| GAGTTGTA | -0.0708 |
| CATTAACA | 0.00613 |
| CGACTGAG | -0.137 |
| AGTGGAAT | -0.0242 |
| ATAACTTA | -0.0936 |
| ACCGCTGC | -0.0522 |
| CATTGTAA | -0.0545 |
| CATCATGA | -0.0434 |
| ACGACTCC | -0.109 |
| AACCGCAG | -0.0195 |
| CCTAACGC | -0.0732 |
| CATCAGTA | -0.172 |
| AGCTGAAT | -0.0932 |
| AACCGAGG | -0.031 |
| CGTTCCTC | 0.194 |
| CACTGTTA | -0.2 |
| CACCTCAA | -0.0547 |
| ATGACATC | 0.0327 |
| CCCTAGGG | -0.262 |
| CTTGCCAA | -0.215 |
| TTCAGGAA | -0.117 |

| Sequence | PBM E-score |
| --- | --- |
| AAAGACCA | -0.341 |
| GGAACCTA | 0.3 |
| ACTGAATG | 0.0997 |
| CGCCTACG | 0.0504 |
| TGACCAAA | 0.0396 |
| AATAATCT | 0.0515 |
| ATTAGGCG | 0.00114 |
| ATGAACGA | -0.188 |
| ATTAAACA | -0.184 |
| AATATCTA | -0.0835 |
| GGTGACGA | -0.231 |
| CAGCTCCC | -0.238 |
| GAACCTCC | 0.0549 |
| AGTAAAGG | 0.0136 |
| AGAGGTGG | -0.183 |
| CACGCGAG | 0.0113 |
| GAGCAGAC | -0.194 |
| TGACAACA | -0.117 |
| ACTAGGCC | -0.104 |
| CCGTAAGG | -0.138 |
| GTTAGATA | -0.129 |
| CACATGCC | 0.0479 |
| ACTCGCAT | 0.00737 |
| CTTGGGGA | -0.143 |
| CGAAAAGC | 0.0467 |

| Sequence | PBM E-score |
| --- | --- |
| CCATTCGC | -0.137 |
| TGTCGTAA | -0.113 |
| CCCGTGTC | 0.244 |
| CAGAGGAA | 0.0208 |
| ATTTAGTC | 0.129 |
| GCCAACTA | -0.165 |
| ATCGTAAC | 0.0598 |
| ACGGTGGG | -0.0386 |
| CGGTACCG | 0.362 |
| GGCTTTTA | -0.15 |
| GCTGGTCC | 0.104 |
| AATATGTC | -0.0211 |
| CGCGAGGA | 0.135 |
| ACTTGTAA | -0.217 |
| AAATAAGC | -0.25 |
| CACGGTCG | -0.0168 |
| TCTAGGCA | -0.152 |
| CTGTCTAA | -0.0185 |
| TCCAAGCA | -0.167 |
| GATTCCGC | 0.455 |
| CGCCGACG | 0.0962 |
| ACACCCCC | -0.198 |
